A number of entries come with more than one value. They are shown here; other results are not. An entry can have further records. The values listed for one entry are repeated measurements across runs, samples, wells, individuals or studies. A date in brackets names the month of the test. Marks such as (2×) stand for listed records that agree.
Test system: KRAS PDC multicell spheroid viability
Assay: Anticancer human tumor 825966-067-R-J1-PDC patient-derived colon carcinoma cell line growth inhibition [KRAS2]
Details: for viability, T/C: stronger effect = lower value; for IC50: compound alone
Description: Multicellular complex tumor spheroid response to RAS pathway inhibitors in combination with a targeted agents in patient-derived cell lines with oncogenic KRAS variants from multiple cancer types
A high-throughput screen of multi-cell type tumor spheroids was designed to identify active combinations of targeted small molecules and KRAS pathway inhibitors. Complex spheroids include a stromal component modeled by human endothelial cells (HUVEC) and fibroblasts modeled by human mesenchymal stem cells (MSCs). The concentration ranges selected for each drug and investigational agent were based upon clinically achievable concentrations if the clinical Cmax of the agent was known.
Compounds. The drugs and investigational agents: BI-3406 (NSC825286), BAY-293 (NSC824723), batoprotafib (TNO155; NSC825523), sotorasib (AMG 510; NSC818433), MRTX1257 (NSC819558), elimusertib (BAY 1895344; NSC800525), molibresib (GSK525762; NSC774829), temuterkib (LY3214996; NSC803410), venetoclax (NSC766270), alisertib (NSC759677), olaparib (NSC753686), talazoparib (NSC767125), erdafitinib (NSC781556), ipatasertib (NSC767898), cabozantinib (NSC761068), nintedanib (NSC756659), abemaciclib (NSC768073), docetaxel (NSC628503), trametinib (NSC758246), and sapanisertib (NSC764658) were obtained from the National Cancer Institute (NCI) Developmental Therapeutics Program Chemical Repository. The FDA-approved anticancer drug set is available from the Developmental Therapeutics Program. […] The stock solutions were prepared in dimethyl sulfoxide (DMSO, Sigma-Aldrich, St. Louis, MO, cat. D2650) at 800-fold the tested concentration and stored at -70 degrees C prior to their use. All drugs and investigational agents were tested over a range starting from a high concentration at or near the clinical Cmax and decreasing in half-log increments. If the clinical Cmax for an agent had not been determined, the highest concentration tested was 10 microM.
Cell Culture. All cells were maintained in an incubator at 37 degrees C and 5% CO2 with 95% humidity. The PDC lines were cultured according to standard operating procedures established by the NCI PDMR (https://pdmr.cancer.gov/sops/default.htm). Briefly, all PDCs were thawed and cultured in Matrigel-coated flasks prepared with a working solution of 1X Ham's F-12 nutrient mix, without supplementation (Invitrogen, Waltham, MA, cat. 11765054), 100 U/mL penicillin-streptomycin (Invitrogen, cat. 15140122), and 2.5% Matrigel (Corning Inc., Corning, NY, cat. 354248) for the first three passages. All PDCs were cultured in complete DMEM/F-12 media containing advanced DMEM/F-12 (Invitrogen, cat. 12634028), 4.9% defined fetal bovine serum, heat inactivated (HyClone Laboratories Inc., Logan, UT, cat. SH30070.03HI), 389 ng/mL hydrocortisone (Sigma-Aldrich, cat. H4001), 9.7 ng/mL human EGF recombinant protein (Invitrogen, cat. PHG0313), 23.4 microg/mL adenine (Sigma-Aldrich, cat. A2786), 97.3 U/mL penicillin-streptomycin (Invitrogen, cat. 15140122), 1.9 mM L-glutamine (Invitrogen, cat. 25030081), and 9.7 microM Y-27632 dihydrochloride (Tocris Bioscience, Bristol, United Kingdom, cat. 1254). The PDCs were cultured in complete DMEM/F12 media without 9.7 microM Y-27632 dihydrochloride for at least two passages prior to the screen. The established cell line HOP-62 was cultured in RPMI 1640 medium, HEPES (Invitrogen, cat. 22400105) with 10% defined fetal bovine serum (HyClone Laboratories Inc., cat. SH30070.03) and 2 mM L-glutamine (Invitrogen, cat. 25030081). The pooled donor HUVEC were cultured in endothelial cell growth medium 2 (PromoCell, Heidelberg, Germany, cat. C-22011) and the hMSC were cultured in mesenchymal stem cell growth medium 2 (PromoCell, cat. C-28009). For all experiments, HUVEC and hMSC were used at passages </=5, while the malignant cell lines were used at passages </=15. […]
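Also: spheroids exposed to compounds for 7 days.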
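For viability, T/C in this document: 100% = DMSO vehicle control viability.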

SMILES | viability, T/C (compound alone 0.316 µM) | viability, T/C (compound alone 1 µM) | viability, T/C (compound alone 3.16 µM) | viability, T/C (compound alone 0.0316 µM) | viability, T/C (compound alone 0.1 µM) | also measured
CC1OCC2(CCN(c3cnc(Sc4ccnc(N)c4Cl)c(N)n3)CC2)C1N (stereo not drawn) | 91, 85.8, 86.5, 82.5, 86.2, 95.8, 102, 90.9, 94.6, 95.2, 75% [2021-08] and 83.8, 89.2, 81.5, 88.7, 84.7, 97.7, 93.2, 87.8% [2021-09] | 88.8, 108, 73.4, 91.8, 85.8, 84.3, 117, 83.8, 99.9, 95.2, 83.3% [2021-08] and 79, 94.7, 81.1, 89.6, 85.8, 102, 103, 85% [2021-09] | 90.3, 92.3, 80.7, 98.1, 94.8, 105, 83.2, 99.9, 127, 93.4, 78.6% [2021-08] and 103, 98.8, 93, 89, 99.1, 96.4, 115, 89.4, 88.7% [2021-09] |  |  | viability, T/C (compound alone 10 µM): 84.7, 85, 99.7, 54.2, 78.7, 47, 27.4, 49.6, 47.3, 37.1, 40.6% [2021-08] and 47.6, 44.4, 72.4, 66.8, 81.7, 99.7, 94.9, 41.9, 68.9% [2021-09]
Cn1ncnc1[C@H]1c2n[nH]c(=O)c3cc(F)cc(c23)N[C@@H]1c1ccc(F)cc1 |  |  |  | 86.4, 74.4, 56, 90.7, 65.1% | 85.6, 67.2, 54.4, 95.5, 64.9% | viability, T/C (compound alone 0.000316 µM): 76.9, 110, 87.5, 111, 74.8%; viability, T/C (compound alone 0.001 µM): 78.1, 106, 103, 71.9, 109%; viability, T/C (compound alone 0.00316 µM): 87.2, 85.4, 61.2, 89, 94.9%
Cn1nccc1Nc1nccc(-c2cc3c(s2)C(C)(C)N(CCN2CCOCC2)C3=O)n1 |  | 114, 110, 119, 123, 97.6% |  |  |  | 
COc1cc2nc(C)nc(NC(C)c3cc(N)cc(C(F)(F)F)c3)c2cc1OC1CCOC1 (stereo not drawn) | 106, 101 (2×), 79.3, 95.7, 69.1, 81.5, 111, 76.3, 88, 92.4% [2021-08] and 102, 96.8, 105, 89.6, 89.7, 96.3% [2021-09] | 94.2, 94.5, 92.7, 78.3, 84.8, 117, 89.1, 82.2, 101, 89.9, 96.5% [2021-08] and 99.2, 99.3, 104, 60.5, 97.8, 96% [2021-09] | 112, 104, 111, 95.6, 97.8, 94.6, 90.9, 72.3, 121, 102, 99% [2021-08] and 131, 112 (3×), 96.1, 98.4% [2021-09] |  | 90.7, 95.7, 75.8, 110, 81.5, 91.5, 93.5, 84.4, 97.2, 82.6, 89.8% [2021-08] and 87.2, 79.3, 103, 95.7, 84.6, 92% [2021-09] | viability, T/C (compound alone 10 µM): 71.5, 109, 107, 6.7, 8.95, 1.37, 17.1, 14.1, 36.2, 7.67, 10.4% [2021-08] and 69.4, 51.9, 86.3, 113, 35, 66.1% [2021-09]; IC50 (run of 08/19/2021): > 10 µM, 5.65 µM, 5.3 µM, 5.49 µM
CNCc1ccccc1-c1csc(C(C)Nc2nc(C)nc3cc(OC)c(OC)cc23)c1 (stereo not drawn) | 90.4, 100, 85.8, 90.2, 91.8, 93.8, 103 (2×), 96.3, 81.3, 78.3% [2021-08] and 100, 93.7, 85.9, 79.5, 90.1, 105% [2021-09] | 73.5, 112, 81, 96.1, 91, 98, 111, 98.5, 113, 80.2, 73.3% [2021-08] and 108, 71.2, 92.5, 85.1, 97.1, 107% [2021-09] | 89.1, 65.6, 23.1, 30.3, 34.6, 2.21, 50.3, 58.7, 47.5, 57.8, 31.6% [2021-08] and 72.2, 1.97, 26.9, 66, 88.2, 89.9% [2021-09] |  | 89.6, 98.4, 99.6, 86.1, 88.8, 97, 74.2, 95.7, 82.6, 88.5, 91% [2021-08] and 109, 92.4, 91.9, 85.5, 83.5, 116% [2021-09] | IC50 (run of 09/02/2021): 2.08 µM and 4.5, 1.42, 4.19, 5.28 µM [2021-09]
CCN1CCN(Cc2ccc(Nc3ncc(F)c(-c4cc(F)c5nc(C)n(C(C)C)c5c4)n3)nc2)CC1 |  | 101, 158, 170, 142, 165% |  | 114, 86.9, 115, 99.5, 80.1% |  | 
CC1(C)CCC(CN2CCN(c3ccc(C(=O)NS(=O)(=O)c4ccc(NCC5CCOCC5)c([N+](=O)[O-])c4)c(Oc4cnc5[nH]ccc5c4)c3)CC2)=C(c2ccc(Cl)cc2)C1 |  | 91.1, 82.9, 82.4, 96.2, 108% |  | 89.8, 99.9, 87.5, 77.8, 104% |  | 
CC(=O)Nc1cccc(-n2c(=O)n(C3CC3)c(=O)c3c(Nc4ccc(I)cc4F)n(C)c(=O)c(C)c32)c1 |  |  |  | 50.6, 44, 63.9, 81.5, 86.1% |  | viability, T/C (compound alone 0.001 µM): 106, 92.6, 92.4, 107, 81.3%; viability, T/C (compound alone 0.00316 µM): 125, 101, 97.4, 110, 98.8%
CC1COCCN1c1cc(-c2ccnn2C)c2ccnc(-c3ccn[nH]3)c2n1 (stereo not drawn) | 70.7, 38, 64.3, 77.3, 65% | 59.4, 38.1, 66.6, 46.1, 82.4% |  | 135, 124, 111, 107, 97.1% | 91.7, 59.1, 51.9, 85.7, 68.9% | IC50: 215 nM, 3.16 µM, > 3.16 µM

Source: PubChem BioAssay AID1963865 (Molecular Pharmacology Branch, DTP, NCI, 2024)
